Results reported in the supplement of paper PMC5998384.

How the values were obtained:
HeLa Kyoto [1] = assay: thermal stability score vs G1/S (z-score of summed log2 fold changes over temperatures); higher = more thermally stable than in G1/S
HeLa Kyoto [2] = assay: melting temperature (median over replicates), in situ; higher = more thermally stable
HeLa Kyoto [3] = assay: solubility change mitosis vs G1/S (difference of NP-40 vs SDS log2 ratios) (log2 ratio difference); higher = more soluble in mitosis
HeLa Kyoto [4] = assay: solubility in G1/S (NP-40 vs SDS abundance) (log2 ratio); higher = more soluble; settings: cell cycle stage: G1/S
[5] = cell cycle stage: early G1 (4.5 h after nocodazole release)
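For melting temperature (median over replicates), in situ in this document: HeLa Kyoto cells synchronized by double thymidine or nocodazole block, proteins quantified by TMT10plex mass spectrometry, three independent biological replicates.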
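For solubility change mitosis vs G1/S (difference of NP-40 vs SDS log2 ratios) in this document: synchronized HeLa Kyoto cells (double thymidine block for G1/S, nocodazole release for mitosis), protein amounts in NP-40 versus SDS lysates quantified by mass spectrometry, three biological replicates.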
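For solubility in G1/S (NP-40 vs SDS abundance) in this document: HeLa Kyoto cells arrested at G1/S by double thymidine block, proteins quantified by TMT10plex mass spectrometry in mild NP-40 versus SDS extracts, three biological replicates.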
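For thermal stability score vs G1/S (z-score of summed log2 fold changes over temperatures) in this document: synchronized HeLa Kyoto cells, proteins quantified by TMT10plex mass spectrometry, three biological replicates, mitosis taken 0.5 h after nocodazole release, G1/S directly after double thymidine block.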

Substance | thermal stability score (HeLa Kyoto [1]; [5]) | thermal stability score (HeLa Kyoto [1]; cell cycle stage: mitosis) | melting temperature (HeLa Kyoto [2]; cell cycle stage: G1/S) [°C] | melting temperature (HeLa Kyoto [2]; cell cycle stage: mitosis) [°C] | solubility change mitosis (log2) (HeLa Kyoto [3]) | solubility in G1/S (log2) (HeLa Kyoto [4])
MLEICLKLVGCKSKKGLSSSSSCYLEEALQRPVASDFEPQGLSEAARWNSKENLLAGPSE[skipping about 60 residues]LEKHSWYHGPVSRNAAEYLLSSGINGSFLVRESESSPGQRSISLRYEGRVYHYRINTASDGKLYVSSESRFNTLAELVHHHSTVADGLITTLHYPAPKRNKPTVYGVSPNYDKWEMERTDITMKHKLGGGQYGEVYEGVWKKYSLTVAVKTLKEDTMEVEEFLKEAAVMKEIKHPNLVQLLGVCTREPPFYIITEFMTYGNLLDYLRECNRQEVNAVVLLYMATQISSAMEYLEKKNFIHRDLAARNCLVGENHLVKVADFGLSRLMTGDTYTAHAGAKFPIKWTAPESLAYNKFSIKSDVWAFGVLLWEIATYGMSPYPGIDLSQVYELLEKDYRMERPEGCPEKVYELMRACWQWNPSDRPSFAEIHQAFETMFQESSISDEVEKELGKQGVRGAVSTLLQAPELPTKTRTSRRAAEHRDTTDVPEMPHSKGQGESDPLDHEPAVSPLLPRKERGPPEGGLNEDERLLPKDKKTNLFSALIKKKKKTAPTPPKRSSSFREMDGQPERRGAGEEEGRDISNGALAFTPLDTADPAKSPKPSNGAGVPNGALRESGGSGFRSPHLWKKSSTLTSSRLATGEEEGGGSSSKRFLRSCSASCVPHGAKDTEWRSVTLPRDLQSTGRQFDSSTFGGHKSEKPALPRKRAGENRSDQVTRGTVTPPPRLVKKNEEAADEVFKDIMESSPGSSPPNLTPKPLRRQVTVAPASGLPHKEEAGKGSALGTPAAAEPVTPTSKAGSGAPGGTSKGPAEESRVRRHKHSSESPGRDKGKLSRLKPAPPPPPAASAGKAGGKPSQSPSQEAAGEAVLGAKTKATSLVDAVNSDAAKPSQPGEGLKKPVLPATPKPQSAKPSGTPISPAPVPSTLPSASSALAGDQPSSTAFIPLISTRVSLRKTRQPPERIASGAITKGVVLDSTEALCLAISRNSEQMASHSAVLEAGKNLYTFCVSYVDSIQQMRNKFAFREAINKLENNLRELQICPATAGSGPAATQDFSKLLSSVKEISDIVQR [ABL1] | 0.319 | 0.808 | 48.5 | 50.3 | 0.0814 | -0.0433
CCT5 (sequence left out) | 0.0012 | -1.08 | 54.2 | 53.8 | -0.115 | 0.334
EIF3A (sequence left out) | -0.561 | 1.01 | 49.3 | 49.2 | -0.0239 | -0.482
EIF2S2 (sequence left out) | -0.0526 | -2.09 | 54.1 | 54 | 0.0541 | 0.0663
[skipping about 200 residues]VQCKVTLLDGTEYSCDLEKHAKGQVLFDKVCEHLNLLEKDYFGLLFQESPEQKNWLDPAKEIKRQLRNLPWLFTFNVKFYPPDPSQLTEDITRYFLCLQLRQDIASGRLPCSFVTHALLGSYTLQAELGDYDPEEHGSIDLSEFQFAPTQTKELEEKVAELHKTHRGLSPAQADSQFLENAKRLSMYGVDLHHAKDSEGVDIKLGVCANGLLIYKDRLRINRFAWPKILKISYKRSNFYIKVRPAELEQFESTIGFKLPNHRAAKRLWKVCVEHHTFYRLVSPEQPPKAKFLTLGSKFRYSGRTQAQTRQASTLIDRPAPHFERTSSKRVSRSLDGAPIGVMDQSLMKDFPGAAGEISAYGPGLVSIAVVQDGDGRREVRSPTKAPHLQLIEGKKNSLRVEGDNIYVRHSNLMLEELDKAQEDILKHQASISELKRNFMESTPEPRPNEWEKRRITPLSLQTQGSSHETLNIVEEKKRAEVGKDERVITEEMNGKEISPGSGPGEIRKVEPVTQKDSTSLSSESSSSSSESEEEDVGEYRPHHRVTEGTIREEQEYEEEVEEEPRPAAKVVEREEAVPEASPVTQAGASVITVETVIQENVGAQKIPGEKSVHEGALKQDMGEEAEEEPQKVNGEVSHVDIDVLPQIICCSEPPVVKTEMVTISDASQRTEISTKEVPIVQTETKTITYESPQIDGGAGGDSGTLLTAQTITSESVSTTTTTHITKTVKGGISETRIEKRIVITGDGDIDHDQALAQAIREAREQHPDMSVTRVVVHKETELAEEGED [EPB41L2] | -0.758 | -0.0297 | 51.9 | 51.9 | -0.035 | -0.0395
GBF1 (sequence left out) | -1.15 | -0.203 | 50.5 | 49.9 | -0.107 | -0.139
TBC1D9B (sequence left out) | 0.53 | 0.989 | 50.2 | 50.6 | -0.183 | -0.0909
